The values below come from the RNAGym collection of RNA variant scans (doi:10.7554/elife.90254).

Read counts are not given, so values of variants with three or more changes are uncertain.

To fix the notation:
B1: LINE1-mini (parent)
chain: GGCAGAGCUCAACACAGCGUGGCAAAGUGGCUGUGGCUAGACUGCC

This data set covers variants of B1. In words: self-cleavage, relative activity (ratio to wild type); higher = more cleavage; in vitro, sequencing; the parent is a self-cleaving ribozyme.
On to GGGAGAACACAACACAGCGUGGCAAUGUUGCUGUGCCUCGACUGCC, for which the self-cleavage was determined as 0.16.

As for GGGAGAGCUCAACACAAUGUGGCAAAGUGGCUGUGGCUAGCCUGCC, the self-cleavage was 0.04. Take GGGAGAGCUCAACACAUCGUGGCAAAGUGGCUGGGGCUAGACUACC: the self-cleavage was determined as 0.02. To GGGAGAGCUCAACACAGCCUGGCCAAGUGGCUGUGCCUAGACUGCC belongs 0.01; to GGGAGAUCACAACCCAGCGUGGCAAAGUGGCUGUGGCUAGACUGCC, 0.03. GGGAUAGGUCAACACAGCGGGGCAAAGUGGCUGUGGCUAUACUGCC: the self-cleavage was found to be 0.05. In the case of GGGAGAGCUCAACACAGCAUGUCACAGUGGCCGUGGCUAGACUGCC, the self-cleavage was 0.27. To GGGACAGAUCAACACAGCGUGGCAAAGUGGCUGUGGCUAGACUGCC belongs 0.14; to GGGACAGCUCAACACAGCGUCCGAAAGUGUCUGUGGCUAGACUGCC, 0.03.

Consider GGGAGAGCUCAACACAGCGUCACAAAGUGGCUGUAGAUAGACCGAC, for which the self-cleavage was 0.12. To GGGAGAGCUCAACACAGCGUAGUAAAGUGGCUGUGGGUAGACUGCC belongs 0.01.

Take GGGAGAUCUCAACACAGCGUGGCAAAGUGGCUGUGGCUAGGCUGCC: the self-cleavage was determined as 0.07. To GGGAGAACUCAACACAGCGCGGCAAAGUGGCUGUGGCUAGACUGCC belongs 0.07.

For GGGAGAGCUCAACACACCGUGACAAAGUGGCUGUCGCUAUGCUGCC, the self-cleavage stood at 0.06. Turning to GGGAGAGCUCAACACAGCGUGUCAAAGUGGCUGUGGCUAGACUGCG, the self-cleavage amounted to 0.36. To GGGAGAGCUCAACACAUCAUGGCAAAGUGGCUGUGGCUAGACUGCC belongs 0.04; to GGGAGAUUUCAUCACAGCGUGGCAAAAUGGCUGUGGCUAGACUUCC, 0.55.

Regarding GGGAGAACUCAACACAGCGUGGCAAAGUGCCUGUGCCUAGACUGCC, the self-cleavage was 2.45. GGGAGACCUCAACACAGCGUGGUGAACUGGCUGUGGCUAGCCUGCC: the self-cleavage was determined as 0.03. For the variant GGGAGAACUCAACACAGCGUGGCAAAGUGGAUGUGGCUAGCCUGCC, the self-cleavage was determined as 0.09. Consider GGGACAGCUCAACACAUCGGGGCAGAGUCGUUGUGGCUAGACUGCC, for which the self-cleavage came to 0.52.

Regarding GGGAGAGCUCAACACAGCGUGCCAAAGUGGCUGUGGCUAGGCUGCC, the self-cleavage was 0.09. To GGGAGAUCUGAAAACAGCGUGGCAAAGGGGCUGUGGCUCGACUGCC belongs 0.01; to GGGAUAGCUCAACACAGCGUGGCAAAGUGGUUGUGGUGAGACUGCC, 0.03; to GGGAGAGCUCAACACAGCGUGCCAAUGUGGCUGUGGCUAGACUGCC, 0.16. For the variant GGGAGAGCUCAACACAGCUUGUCAAAGUGGCUGUGGCUAGACUGUC, the self-cleavage stood at 0.07. GGGACAGCUCAACACAGCGUGGCAAAGUUGCUGUGGCUGGACUGCC: the self-cleavage turned out to be 0.06. For GGGAGAUCUCAACACAGCGUGGCAGAGUGGCUGUGGCUAGACUGCC, the self-cleavage was 0.15. To GGGAGACCUCAAUACAGCGUGGCAAAGUGGCUCUGGCUAAACUUUC belongs 0.02. To GGGAGAGCUCAACACACCGUGGCAAUGUGGCUUUGGCUCGACUGCC belongs 0.05. To GGGAGAACUCAACACAGCGUGCCAAAGUGAAUGGGGCUAGACUGCC belongs 0.19; to GGGAGAGCUCAACACAGCGUAGCAAAGGGGCUGUGGCUAGACUGCC, 0.81.

For the variant GGGAGAGCUCAACACACAGUGGCAAAGUGGCUGUAGCUAGACUGCC, the self-cleavage came to 0.13.

As to GGGAGAGCUCAACACACCGUGGCAAAAUGGCUGUGGCUAGACUGCC, the self-cleavage stood at 0.05. To GGGACAGCUCAACACAGCGUGGCAAAGUGGCUGUGGCGAGACUGUC belongs 0.03; to GGGAGAGCUCAACACAACGUGGCAAAGUGGCUGUGGCCAGACUGCC, 0.05; to GGGAGAACUCAACACAGCGUGGCAAAGUGGCUGUGGCUAGACGGCC, 0.03.

Take GGGAGAGCUCAACACAGCGUGCCAAAGUGGCUGUGGCUAGACUGCU: the self-cleavage amounted to 0.2.

On to GGGAUAGCUCAACACAGCGUGGCAAAGCGGCUGUGGCUAGAAUGCC, for which the self-cleavage is 0.23. In the case of GGGAGAUCUCAACACAGGGUGGCAAAGUGGCUGUGGCUAGACUGCC, the self-cleavage was found to be 0.29. To GGGAGAGCUCAACACAUCGUGGCAAAGUGGCUGUGUCUAGACUGCC belongs 0.47. To GGGAGAGCUCAACACAGCGUCGCAAAGUGGCUGUGGCUAGAAUGCC belongs 0.07; to GGGAGAACUCAACACAGCGUGGCAGAGUGGCUGUGGCUAGACUGCC, 0.17; to GGGACAGCUCAACACUGCGUGGCAAAGUGGCUGUGGCUAGACUGCC, 0.17.

GGGAUAGCUCAACACAGCGGGGCAAAGUGGCUGUGGAUAGAAUACC: the self-cleavage was 0.33.

With GGGAGAGCUCAACACAGCCUGGCAAAGUGGCUGUGGCUAGACUGGC, the self-cleavage was 0.09. To GGGAGAGCUCAACACAGCGUGUCAAAGUGGCUGUGGCUACACUUCC belongs 0.02. Consider GGGAGAGCUCAACACAACGUGGCAAAGUGGCUGUGGCUAGACCGCC, for which the self-cleavage came out at 0.01. To GGGAGAGCUCAACACACCGUGGCAAAGUGGCUCUGGGUUGACUGCC belongs 0.03; to GGGAUAGCUCAACUCAGCGUAGCAACGUGGCUGUGGCUAGACUGCC, 0.04; to GGGAGAGCUCAACACAACGUGGAAAAGUGGCUGUGGCUAGACUGCC, 0.39. Regarding GGGACAGCUCAACACAGCGUGGCAAAGUGGCUGAGGCUUGGCUGCC, the self-cleavage was 0.03. Take GGGAUAGCUCAACACAGCUUGGCAAAGUGGCUGUGUCUAGACUGCC: the self-cleavage was 0.09. Turning to GGGAGAGCUCAACACAGCGUUGCAAAGUGGCUGUGUCUAGACUGCA, the self-cleavage was 1.88. To GGGAGAACUCAACACAGCAUGUCAAAGUUGCAGUGGCUAGACUGCC belongs 0.17.

Take GGGAUAGCUCAACACAGCGUGGCAAAGUGGCUGUGGCUAGACUCCC: the self-cleavage was found to be 0.11. As to GGGAGAGCUCAACACAGCGUCCCAAAGUGGCUGUGGUUAGACUGCC, the self-cleavage was determined as 1.32. To GGGAGACCUGAAUACAGCGUGGCUAAGUGGCUGUGGCUAGACUGCC belongs 0.03. As for GGGAGAGCUCAACACAGCAUGGCAAAGUGGCUUUGGCUAGACUGCC, the self-cleavage worked out at 0.13. On to GGGAGAGCUCAACACAGCGUAGGACAGUGGCUGUGGCUAGACUGCA, for which the self-cleavage was found to be 0.07.

Turning to GGGAGAUCUCAACACAGCGUGGUAAAUUGGCUGUGGCUAGACUGCC, the self-cleavage amounted to 0.04. To GGGAUAGCUCGACAUAGCGUGGCAAAGUGGCUUUGGCUAGACUGCC belongs 0.08.

For the variant GGGAGAGCUCAACACAGCGUGGCAAAAUGGAUGUGGCUAGACUGCC, the self-cleavage was found to be 0.2. Regarding GGGAGAUCUCAACACAGCGUGGCAAAGUGGCUGUGGCUAGACUUCC, the self-cleavage stood at 0.08. To GGGAGAGCUCAACACAGCGUUGCAAAGUGUCUGUGGCUAUACUGCC belongs 0.12; to GGGAGAGCUCAACACAGCGUGACAAAGUGGGUGUGGCUAGACGGCC, 0.06; to GGGAGAGCUCAACACAGCGUAGCAAAGUGGCUGAGGCUAGACUGCC, 0.03. To GGGAGAGCUCAACACACCGUGGCAAAGUGGCAGUCGCUAGAAUGCC belongs 0.12. To GGGAGACCUCAACACAGCGUGGCAAAGUGGCUGUGGCUAGGCUACC belongs 0.01. For GGGAGAGCUCAACACAGCUUGGCAAAGUGGCUGGGGCUAGACUGCC, the self-cleavage turned out to be 0.02. To GGGAGACCUCAACACAGCGUGGCAAAGUGGCUGUGGGUAGACUGCC belongs 0.04; to GGGAUAGCUCAACACAGGGUGGCAAAGUGGCUGUGGCUAGACUGCC, 0.06; to GGGAGAGCUCAACACAGCUUGGCAAAGUGGCUGUGGCUAGACUGCU, 0.08. To GGGAGAACUCAACGCAGCGUGGCAAAGUGGCUGGGGCUAGACUGCC belongs 0.19.

With GGGAGAUCUCAACACAGAGUGGCAAAGUGGCUCUGGCUAGACUGCC, the self-cleavage came to 0.04. With GGGAGAGCUCAACACAGCGUCGCAAGUUGGAUGUGGCUAGACUGGC, the self-cleavage was 0.01.

With GGGAGAGCUCAACACAGCGUAGCAAAGUGUCUGUGGCUAGACUGCC, the self-cleavage came to 0.2.

For the variant GGGAGAUCUCAACACAGCGUGGCAAAGUGGAUGUGGCUAGACUGCC, the self-cleavage stood at 0.15. To GGGACAGCUCAACACAGCGUGGCAAAGUGGCUGUGGCUAGCCUGCC belongs 0.21. As for GGGAGAGCUCAACACAGCGUAGCAAAGUAGCUGUGGCUAGACUGCC, the self-cleavage came to 0.29. To GGGAGAUCUCAACUCAGCGUGGAAAAGUGGCUGUGGCUAGCCCACC belongs 0.1; to GGGAGACCUUAACUUAGCGUGGCAAAGUCGCUGUGGCUAGACUCCC, 0.04. As for GGGAGAGCUCAACACAGCUUGGCAAAUUGUCUGUCGCUAGACUGCC, the self-cleavage came out at 0.18. To GGGAGAGCUCAACACAGCGUAGCGAAGUGGCUGUUGCUAGACUGCC belongs 0.09; to GGGAGAGCUCAACACAGCGUUGCAAAGGGGCUGUGGCUAGACUGCC, 0; to GGGAUAGCUCAACACAGCGAGGCAAGGUGACUGUGGCUAGAUUGCC, 0.11. To GGGAGACCUCAACACAGCGUGGCAAAUUGGCUGUGGCUAGACUGCC belongs 0.04. To GGGAGAUCUCAACACAGCGUGGCAAAGUGGCUGUGGCUAGAAUGCC belongs 0.05; to GGGAGAGCUCAACACAGCGUGUCAAAGUGGCUGUGCCUAGACUGCC, 0.54; to GGGAGAGCUCAACACAGCGUGGCAAAAUGGCUGUGGCUAGUCUGCC, 0.3. GGGAGACCUCAACACAGCGAGGCAAUGUGGCAGUAGAUAGACUGCC: the self-cleavage was 0.01. With GGGAGAGCUCAACACAGCUUGGCUAAGUGGCUGUGGCUAGACUGCC, the self-cleavage amounted to 0.1. To GGGAGAGCUCAACACAGCGUGGCAAACUGGCUGUGGCUAGACUGAC belongs 0.1. For the variant GGGAUAGCUCAACACAGCGUGGCAAAGUGGCUGUGGCUAGUCUGCC, the self-cleavage turned out to be 0.1. As to GGGAGAGCUCAACACAGCGUGGCAAACUGGCUGUUGCUAGACUGCC, the self-cleavage was found to be 0. As for GGGAGAGCUCAACACAGCGUGCCAAAGUGGCUGUGGGUAGAAUGCC, the self-cleavage was 0.04. To GGGAGAUCUCAACACAGCGUGGCUAAGUGGCUGUGGCUGGACUGCC belongs 0.08. To GGGAGAGCUCAACACAGCCUGGCAAUGUGGCUGUGGCUGGCCUGCC belongs 0; to GGGAGAGCUCAACACAUCGUGGCAAAGUGGAUGUGGCUAGACUGCA, 0.15. To GGGAGAGCUCAACACAGCGUCGCAAAGUGGCUGUGGCUAGACAACC belongs 0.09. For the variant GGGAGAGCUCAACACACCCUGGCAAAGUGGCUGUUGCUAGACUGCC, the self-cleavage was 0.1. Take GGGAGAGCUCAACACAGCAUGGCAAAGUGGCUGUGGUUAGACUGCC: the self-cleavage stood at 0.32. To GGGAUAGCUCAACACAGCGAGGAAAAGUGGUUGUGGCUAGACUGCC belongs 0.02; to GGGAGAGCUCAACACAGCGUGACAAAGUGGCUGUGGCUAGACUGCU, 0.25; to GGGAGAUCUCAAAACAGCGUGGCAAAGUGGCUGUGACUAGACUGCC, 0.8. As for GGGAGAACUCAACAAAGCGUGGCAAAGUGGUUGUGGCGAGACUGCC, the self-cleavage stood at 0.09. Consider GGGAGAUCUCAACACAGCCUGGCAAAGUGGCUGUGGCUAGUCUGGC, for which the self-cleavage worked out at 0.27.

On to GGGAGAGCUCAACACAACGUGGUAAAGUGGCUGUUGCUAGACUGCC, for which the self-cleavage was 0.27. To GGGAGAGCUCAACACAGCCUGCCAAAGUGGCUGUGACUAGACUGCC belongs 0.02. To GGGAGAGCUCAACACAGCAUGGCAAAGUGGCUGUGGCUAGACAGCC belongs 1.36; to GGGAGAGCUCAACACAUCUUCGCAAAGUUGCUGUGGCUAGACUGCC, 0.08. With GGGAGAGCUCAACACAGCGUGGCAAAAUGGCAGUGGCUUGACUGCC, the self-cleavage is 0.05.
